Results on 68 cell lines are retold here after the supplement of paper PMC4967469.

A lower IC50 marks a more sensitive line; a fit beyond the top or the lowest dose is shown as a bound at that dose. The AUC spans the tested range (256-fold, ending at the top dose) of the same fit: 1 means no effect, lower means more sensitive. Any top dose called inferred was calculated from the reported fits. Where only a bound is given, the exact number is not on record here.

Compound in this assay: CC1=C(C(=O)Nc2cc3cn[nH]c3cc2F)C(c2ccc(C(F)(F)F)cc2)CC(=O)N1 [GSK429286A]
The assay is described as follows: Viability of human cancer cell lines after 72 h of drug (GDSC screen). To be noted: top dose inferred. The procedure:
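Human cancer cell lines in 384-well plates, medium with 10% serum, drug for 72 h over a 256-fold dose range (nine 2-fold or five 4-fold steps up to the top dose). Adherent lines were fixed and stained with the nucleic acid dye Syto60, suspension lines read with resazurin; signal relative to control wells, capped at 0 and 100%. One two-parameter sigmoid per drug and line, fitted in a mixed model over all curves with the slope shared within a line.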
As for “OC-314 (ovary, adherent, top dose 20 µM)”, the AUC stood at 0.963 and the IC50 (as a rule, the concentration that inhibits the measured activity by half) is over 20 µM.

For the cell line “OCI-AML2 (acute myeloid leukaemia, suspension, top dose 20 µM)”, the AUC was found to be 0.96 and the IC50 was over 20 µM.

As to “OCI-AML3 (acute myeloid leukaemia, suspension, top dose 20 µM)”, the AUC amounted to 0.915 and the IC50 is over 20 µM.

Consider “OCI-AML5 (acute myeloid leukaemia, suspension, top dose 20 µM)”, for which the AUC amounted to 0.891 and the IC50 stood at 19.9 µM.

Regarding “OCI-LY-19 (B-cell lymphoma, suspension, top dose 20 µM)”, the AUC was found to be 0.975 and the IC50 was over 20 µM.

As for “OCI-M1 (acute myeloid leukaemia, suspension, top dose 20 µM)”, the AUC stood at 0.886 and the IC50 is 13.1 µM.

As to “OCUB-M (breast, adherent, top dose 20 µM)”, the AUC stood at 0.945 and the IC50 was over 20 µM.

As to “OCUM-1 (stomach, adherent, top dose 20 µM)”, the AUC is 0.986 and the IC50 is over 20 µM.

In the case of “OE19 (oesophagus, adherent, top dose 20 µM)”, the AUC was 0.986 and the half-inhibitory concentration (IC50) is over 20 µM.

For the cell line “OE21 (oesophagus, adherent, top dose 20 µM)”, the AUC came to 0.973 and the IC50 is over 20 µM.

Take “OE33 (oesophagus, adherent, top dose 20 µM)”: the AUC turned out to be 0.984 and the IC50 was over 20 µM.

Turning to “OMC-1 (cervix, adherent, top dose 20 µM)”, the AUC was determined as 0.97 and the concentration for half-maximal inhibition (IC50) was over 20 µM.

Regarding “ONS-76 (medulloblastoma, adherent, top dose 20 µM)”, the AUC came to 0.937 and the IC50 was over 20 µM.

In the case of “OPM-2 (myeloma, suspension, top dose 20 µM)”, the AUC came to 0.96 and the IC50 was over 20 µM.

As for “OS-RC-2 (kidney, adherent, top dose 20 µM)”, the AUC is 0.95 and the IC50 was over 20 µM.

Regarding “OSC-19 (head and neck, adherent, top dose 20 µM)”, the AUC was 0.983 and the IC50 is over 20 µM.

Take “OSC-20 (head and neck, adherent, top dose 20 µM)”: the AUC was found to be 0.965 and the IC50 was over 20 µM.

Take OV-7 (ovary, adherent, top dose 20 µM): the AUC was 0.732 and the 50% inhibitory concentration (IC50) stood at 8.25 µM.

As to “OV-17R (ovary, adherent, top dose 20 µM)”, the AUC was determined as 0.977 and the IC50 was over 20 µM.

In the case of OV-56 (ovary, adherent, top dose 20 µM), the AUC is 0.98 and the IC50 is over 20 µM.

As for OV-90 (ovary, adherent, top dose 20 µM), the AUC came out at 0.968 and the IC50 was over 20 µM.

“OVCA420 (ovary, adherent, top dose 20 µM)”: the AUC turned out to be 0.979 and the IC50 was over 20 µM.

Take “OVCA433 (ovary, adherent, top dose 20 µM)”: the AUC worked out at 0.965 and the IC50 was over 20 µM.

As to “OVCAR-3 (ovary, adherent, top dose 20 µM)”, the AUC came out at 0.986 and the IC50 was over 20 µM.

For “OVCAR-4 (ovary, adherent, top dose 20 µM)”, the AUC was 0.969 and the half-maximal inhibitory concentration (IC50) is over 20 µM.

Regarding “OVCAR-5 (ovary, adherent, top dose 20 µM)”, the AUC stood at 0.972 and the IC50 was over 20 µM.

As for “OVCAR-8 (ovary, adherent, top dose 20 µM)”, the AUC was 0.975 and the 50% inhibitory concentration (IC50) is over 20 µM.

In the case of OVISE (ovary, adherent, top dose 20 µM), the AUC came to 0.975 and the IC50 is over 20 µM.

Regarding “OVK-18 (ovary, adherent, top dose 20 µM)”, the AUC is 0.985 and the IC50 is over 20 µM.

As to “OVKATE (ovary, adherent, top dose 20 µM)”, the AUC amounted to 0.979 and the IC50 was over 20 µM.

In the case of OVMIU (ovary, adherent, top dose 20 µM), the AUC worked out at 0.981 and the IC50 is over 20 µM.

For the cell line “OVTOKO (ovary, adherent, top dose 20 µM)”, the AUC amounted to 0.954 and the IC50 is over 20 µM.

As for “P12-ICHIKAWA (T-cell lymphoblastic leukaemia, suspension, top dose 20 µM)”, the AUC is 0.922 and the IC50 came out at 18.9 µM.

Consider “P30-OHK (lymphoblastic leukaemia, suspension, top dose 20 µM)”, for which the AUC came to 0.858 and the IC50 came to 12.3 µM.

For the cell line “P31-FUJ (acute myeloid leukaemia, suspension, top dose 20 µM)”, the AUC was 0.988 and the IC50 is over 20 µM.

For “P32-ISH (Burkitt lymphoma, suspension, top dose 20 µM)”, the AUC was 0.964 and the IC50 is over 20 µM.

Turning to PA-1 (ovary, adherent, top dose 20 µM), the AUC is 0.91 and the IC50 was found to be 17.3 µM.

For the cell line “PA-TU-8902 (pancreas, adherent, top dose 20 µM)”, the AUC is 0.967 and the IC50 was over 20 µM.

As for “PA-TU-8988T (pancreas, adherent, top dose 20 µM)”, the AUC came out at 0.985 and the IC50 was over 20 µM.

For “PANC-02-03 (pancreas, adherent, top dose 20 µM)”, the AUC turned out to be 0.972 and the IC50 is over 20 µM.

As for “PANC-03-27 (pancreas, adherent, top dose 20 µM)”, the AUC was determined as 0.989 and the IC50 is over 20 µM.

On to “PANC-04-03 (pancreas, adherent, top dose 20 µM)”, for which the AUC stood at 0.976 and the IC50 is over 20 µM.

As to “PANC-08-13 (pancreas, adherent, top dose 20 µM)”, the AUC came out at 0.983 and the IC50 is over 20 µM.

Turning to “PANC-10-05 (pancreas, adherent, top dose 20 µM)”, the AUC turned out to be 0.982 and the IC50 is over 20 µM.

Take “PC-3 (prostate, adherent, top dose 20 µM)”: the AUC was found to be 0.954 and the IC50 was over 20 µM.

Turning to “PC-3 [JPC-3] (lung adenocarcinoma, adherent, top dose 20 µM)”, the AUC was found to be 0.96 and the IC50 is over 20 µM.

Regarding “PC-14 (lung adenocarcinoma, adherent, top dose 20 µM)”, the AUC was 0.987 and the IC50 is over 20 µM.

Consider “PCI-4B (head and neck, adherent, top dose 20 µM)”, for which the AUC amounted to 0.974 and the IC50 is over 20 µM.

With “PCI-6A (head and neck, adherent, top dose 20 µM)”, the AUC is 0.965 and the IC50 was over 20 µM.

As to “PCI-15A (head and neck, adherent, top dose 20 µM)”, the AUC was 0.978 and the IC50 was over 20 µM.

For the cell line “PCI-30 (head and neck, adherent, top dose 20 µM)”, the AUC turned out to be 0.98 and the half-maximal inhibitory concentration (IC50) was over 20 µM.

For the cell line “PCI-38 (head and neck, adherent, top dose 20 µM)”, the AUC is 0.977 and the IC50 was over 20 µM.

“PE/CA-PJ15 (head and neck, adherent, top dose 20 µM)”: the AUC was 0.98 and the IC50 is over 20 µM.

As for PEO1 (ovary, adherent, top dose 20 µM), the AUC is 0.972 and the IC50 was over 20 µM.

Consider “PF-382 (T-cell lymphoblastic leukaemia, suspension, top dose 20 µM)”, for which the AUC worked out at 0.705 and the IC50 worked out at 4.33 µM.

Turning to “PFSK-1 (medulloblastoma, adherent, top dose 20 µM)”, the AUC was 0.977 and the IC50 is over 20 µM.

Consider “PL4 (pancreas, adherent, top dose 20 µM)”, for which the AUC was determined as 0.985 and the IC50 is over 20 µM.

Regarding “PL18 (pancreas, adherent, top dose 20 µM)”, the AUC was 0.986 and the IC50 is over 20 µM.

In the case of “PL-21 (acute myeloid leukaemia, suspension, top dose 20 µM)”, the AUC worked out at 0.782 and the IC50 is 9.82 µM.

“PSN1 (pancreas, adherent, top dose 20 µM)”: the AUC was 0.96 and the IC50 is over 20 µM.

Turning to “QGP-1 (pancreas, adherent, top dose 20 µM)”, the AUC came to 0.946 and the IC50 is over 20 µM.

With “QIMR-WIL (acute myeloid leukaemia, suspension, top dose 20 µM)”, the AUC was found to be 0.767 and the IC50 was determined as 7.22 µM.

For “RC-K8 (B-cell lymphoma, suspension, top dose 20 µM)”, the AUC worked out at 0.985 and the IC50 was over 20 µM.

With “RCC10RGB (kidney, adherent, top dose 10.24 µM)”, the AUC was 0.928 and the IC50 is over 10.2 µM.

Take “RCC-AB (kidney, adherent, top dose 20 µM)”: the AUC was 0.968 and the IC50 was over 20 µM.

With “RCC-ER (kidney, adherent, top dose 20 µM)”, the AUC amounted to 0.983 and the IC50 was over 20 µM.

Regarding “RCC-FG2 (kidney, adherent, top dose 20 µM)”, the AUC stood at 0.977 and the IC50 is over 20 µM.

As to “RCC-JF (kidney, adherent, top dose 20 µM)”, the AUC was 0.727 and the IC50 worked out at 6.04 µM.
